# Measured values reported in PubChem BioAssay (Tox21).
# Several values for one entry are separate records, joined by “and”; a condition that tells them apart may be missing. Identical values can stand only once. Activity calls are given as the source filed them. Unless noted, calls follow the shape of the dose curve; as a rule, active = well fitted curve in the direction sought with a large enough effect in the repeat runs; inconclusive = weak or mixed curves; inactive = no such curve, though single readings can be large; an effect the other way counts as inactive or inconclusive.
# Key:
# [1] = target: Estrogen receptor (Homo sapiens) (UniProt P03372); experiment: qHTS assay to identify small molecule antagonists of the estrogen receptor alpha (ER-alpha) signaling pathway (AID 743069; active = well fitted curve in the direction sought with a large enough effect in the signal ratio in the repeat runs, not every such curve was filed as active; inconclusive = weak or mixed curves, or effect the other way; inactive = no such curve, though single readings can be large or run the other way; the % refers to the signal ratio; also: potency is read from the fitted curve at half-maximal effect; as to activity, negative = inhibition: % is scaled to controls: 0 for no effect and ±100 for the full control effect); conditions: HEK293 ER-alpha-UAS-bla, beta-lactamase ratio, antagonist mode; activity, negative = inhibition: at 69.4 µM (top of the series) unless noted
# Summary of the method: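 HEK293 cells stably carrying an ER-alpha-UAS-bla beta-lactamase reporter were pre-cultured overnight in 2% charcoal-stripped FBS medium. Test compounds in DMSO were added together with 17beta-estradiol for 18 hr at 37C. Read-out was fluorescence after 2 hr with LiveBLAzer B/G FRET substrate at room temperature.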
# [2] = target: Estrogen receptor (Homo sapiens) (UniProt P03372); experiment: qHTS assay to identify small molecule agonists of the estrogen receptor alpha (ER-alpha) signaling pathway (AID 743075; calls by dose curve; also: potency is read from the fitted curve at half-maximal effect; as to activation: % is scaled to controls: 0 for no effect and ±100 for the full control effect); conditions: HEK293 ER-alpha-UAS-bla, beta-lactamase FRET ratio, 18 h; activation: at 70.1 µM (top of the series) unless noted
# [3] = A CellTox Green Cytotoxicity Assay to monitor cytotoxicity in HEK293 cells - 16 hour (AID 1224888); also: % is scaled to controls: 0 for no effect and ±100 for the full control effect; nearly all actives have a fitted effect of over 35% in size
# Summary of the method: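 Fluorescence intensity, read at 0, 8, 16, 24, 32 and 40 h of compound treatment, reflected dye binding to DNA of dead HEK293 cells; compounds (23 nL, DMSO) were added 5 h after plating cells with reagent.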
# [4] = qHTS assay for small molecule agonists of the p53 signaling pathway - cell viability (AID 651633; calls by dose curve; also: potency is read from the fitted curve at half-maximal effect; nearly all actives have a fitted effect of over 30% in size)
# Summary of the method: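 p53RE-bla cells, seeded at 4,000 per well and rested 5 h at 37 C/5% CO2, received compounds in DMSO for 16 h at 37 C. CellTiter-Glo was then added, and luminescence was read after 30 min at room temperature to gauge cytotoxicity.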
# [5] = qHTS assay to identify small molecule antagonists of the androgen receptor (AR) signaling pathway using the MDA cell line - cell viability counter screen (AID 743041; also: potency is read from the fitted curve at half-maximal effect; nearly all actives have a fitted effect of over 45% in size); conditions: MDA-kb2 viability, CellTiter-Fluor, 16 h, cells co-treated with R1881 androgen agonist; viability change, negative = cytotoxic: at 70.3 µM (top of the series)
# Summary of the method: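 MDA-kb2 AR-luc human breast carcinoma cells (MMTV-luciferase, AR/GR responsive) were treated with compounds plus R1881 agonist for 16 h at 37 °C. Viability was read as CellTiter-Fluor fluorescence in the same wells as the reporter assay.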
# [6] = tested on: thyroid hormone receptor (rat, GH3 cells); experiment: qHTS assay to identify small molecule agonists of the thyroid receptor (TR) signaling pathway (AID 743066; calls by dose curve; also: potency is read from the fitted curve at half-maximal effect; as to activation: % is scaled to controls: 0 for no effect and ±100 for the full control effect); conditions: GH3.TRE-Luc cells, TR agonist luciferase, 24 h; activation: at 83.9 µM (top of the series) unless noted
# [7] = qHTS assay to identify small molecule antagonists of the estrogen receptor alpha (ER-alpha) signaling pathway using the BG1 cell line (AID 743080; calls by dose curve;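 also: BG1 cells stimulated with 17beta-estradiol alongside compound; nearly all actives have a fitted effect of over 25% in size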; also: potency is read from the fitted curve at half-maximal effect); conditions: BG1Luc4E2 ERE-luciferase antagonist mode, luminescence; activity change, negative = inhibition: at 70.3 µM (top of the series) unless noted
# Summary of the method: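 Readout is ONE-Glo luminescence, taken 30 min at room temperature after reagent addition, preceded by a CellTiter-Fluor viability read; BG1-Luc-4E2 cells had received compound and 17beta-estradiol for 21.5 h at 37 C.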
# [8] = qHTS assay to identify aromatase inhibitors - cell viability counter screen (AID 743084); conditions: MCF-7 aro ERE viability, CellTiter-Fluor, 24 h; activity change, negative = cytotoxicity: at 70.3 µM (top of the series);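 also: cells stimulated with testosterone during compound exposure; nearly all actives have a fitted effect of over 55% in size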; also: potency is read from the fitted curve at half-maximal effect
# [9] = target: Vitamin D3 receptor (Homo sapiens) (UniProt P11473); experiment: qHTS assay to identify small molecule antagonists of the vitamin D receptor (VDR) signaling pathway (AID 743223; active = well fitted inhibition curve with a large enough effect in the signal ratio in the repeat runs, not every such curve was filed as active; inconclusive = weak or mixed curves, or effect the other way; inactive = no such curve, though single readings can be large or run the other way; the % refers to the signal ratio; also: potency is read from the fitted curve at half-maximal effect); conditions: VDR-UAS-bla HEK293T, beta-lactamase FRET ratio, 16 h; activity change, negative = inhibition: at 61 µM (top of the series) unless noted
# Summary of the method: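 Beta-lactamase reporter read-out: FRET substrate fluorescence after 2 h at room temperature, following 16 h exposure of VDR-bla cells to test compound plus 3 nM (final) 1alpha,25-dihydroxyvitamin D3 agonist at 37C.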
# [10] = qHTS assay to identify small molecule antagonists of the thyroid receptor (TR) signaling pathway (AID 743065); also: nearly all actives have a fitted effect of over 55% in size; also: potency is read from the fitted curve at half-maximal effect
# Summary of the method: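 GH3.TRE-Luc rat pituitary cells carrying two TR response elements driving luciferase were plated for 4 h, given compound plus 1 nM T3 (final), and incubated 23.5 h at 37 C. ONE-Glo luminescence measured reporter inhibition; CellTiter-Fluor fluorescence tracked cytotoxicity.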
# [11] = qHTS assay to identify small molecule agonists of the farnesoid-X-receptor (FXR) signaling pathway - cell viability counter screen (AID 743218); conditions: FXR-bla HEK293T viability, CellTiter-Glo luminescence, 16 h; viability change, negative = cytotoxic: at 62.6 µM (top of the series); also: nearly all actives have a fitted effect of over 45% in size; also: potency is read from the fitted curve at half-maximal effect
# Summary of the method: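 Parallel cytotoxicity test: compound-treated (16 h, 37 C) HEK 293T FXR-bla reporter cells were lysed with CellTiter-Glo and luminescence recorded.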
# [12] = target: Estrogen receptor beta (Homo sapiens) (UniProt Q92731); experiment: qHTS assay to identify small molecule antagonists of the estrogen receptor beta (ER-beta) signaling pathway (AID 1259378; active = well fitted inhibition curve with a large enough effect in the signal ratio in the repeat runs, not every such curve was filed as active; inconclusive = weak or mixed curves, or effect the other way; inactive = no such curve, though single readings can be large or run the other way; the % refers to the signal ratio; also: % is scaled to controls: 0 for no effect and ±100 for the full control effect); conditions: ER-beta-UAS-bla HEK293T, beta-lactamase FRET ratio, 16 h; activity, negative = inhibition: at 92.4 µM (top of the series) unless noted
# Summary of the method: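 ER-beta-UAS-bla HEK293T (GripTite) cells in 2% charcoal-stripped FBS medium were preincubated 6 hr at 37C, dosed with compound, then stimulated with 1 nM E2 (final) for 16 hr; beta-lactamase reporter read by B/G FRET fluorescence after 2 hr substrate loading.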
# [13] = qHTS assay to identify small molecule antagonists of the vitamin D receptor (VDR) signaling pathway - cell viability counter screen (AID 743225); conditions: VDR-bla HEK293T viability, CellTiter-Glo luminescence, 16 h; viability change, negative = cytotoxic: at 61 µM (top of the series) unless noted; also: % is scaled to controls: 0 for no effect and ±100 for the full control effect; nearly all actives have a fitted effect of over 50% in size
# Summary of the method: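 Viability counter screen run in the same wells as the beta-lactamase reporter assay: HEK 293T VDR-UAS-bla cells, 16 h compound exposure at 37C with 3 nM (final) 1-alpha,25-dihydroxyvitamin D3. CellTiter-Glo luminescence, 30 min, room temperature.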
# [14] = qHTS assay to identify small molecule agonists of the progesterone receptor (PR) signaling pathway - cell viability counter screen (AID 1346799; calls by dose curve; also: % is scaled to controls: 0 for no effect and ±100 for the full control effect; nearly all actives have a fitted effect of over 45% in size)
# Summary of the method: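 HEK293T PR-UAS-bla, 3,000 cells/well, 2% charcoal-stripped FBS; 6 h settle, compound 16 h at 37C/5% CO2; LiveBLAzer 2 h RT, then CellTiter-Glo 30 min RT, luminescence read.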
# [15] = qHTS assay to identify small molecule antagonists of the peroxisome proliferator-activated receptor gamma (PPARg) signaling pathway - cell viability counter screen (AID 743194); conditions: PPARg-bla HEK293H viability, CellTiter-Glo luminescence, 17 h; Potency: co-treated with 50 nM rosiglitazone unless noted; activity change, negative = cytotoxicity: at 62.6 µM (top of the series), co-treated with 50 nM rosiglitazone unless noted; also: % is scaled to controls: 0 for no effect and ±100 for the full control effect; nearly all actives have a fitted effect of over 55% in size
# Summary of the method: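 PPARg-UAS-bla HEK293H cells were plated, rested 5 h at 37 C, then treated with compounds plus rosiglitazone (50 nM final) for 17 h at 37 C; viability was then read by CellTiter-Glo luminescence after 30 min at room temperature.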
# [16] = qHTS assay to identify small molecule antagonists of the progesterone receptor (PR) signaling pathway - cell viability counter screen (AID 1346798); also: % is scaled to controls: 0 for no effect and ±100 for the full control effect; nearly all actives have a fitted effect of over 50% in size
# Summary of the method: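 Luminescence readout (CellTiter-Glo, 30 min, RT) of viability in PR-UAS-bla HEK293T cells exposed to compound and R5020 agonist for 16 hr at 37C, 5% CO2; run in the same wells as the beta-lactamase reporter read.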
# [17] = qHTS assay to identify small molecule agonists of the estrogen receptor beta (ER-beta) signaling pathway - cell viability counter screen (AID 1259380); also: % is scaled to controls: 0 for no effect and ±100 for the full control effect; nearly all actives have a fitted effect of over 30% in size
# Summary of the method: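 CellTiter-Glo read, 30 min RT, same wells as bla assay; cells ER-beta-UAS-bla HEK293T; 16 hr compound, 37C; medium 2% charcoal-stripped FBS.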
# [18] = qHTS assay to identify small molecule antagonists of the sonic hedgehog signaling (Shh) pathway (AID 1259369; calls by dose curve; also: % is scaled to controls: 0 for no effect and ±100 for the full control effect; nearly all actives have a fitted effect of over 45% in size)
# Summary of the method: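 For antagonist detection, the reporter line received test compounds together with conditioned medium, incubated 24hr at 37 C, 5% CO2, then luminescence was recorded following 30min room-temperature luciferase reagent incubation.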
# [19] = target: Nuclear receptor subfamily 1 group I member 2 (Rattus norvegicus) (UniProt Q9R1A7); experiment: Rat pregnane X receptor (rPXR) activation by small molecules, qHTS assay (AID 1346983); conditions: rPXR luciferase reporter cells, One-Glo luminescence, 24 h; max activation: stronger effect = higher value; also: potency is read from the fitted curve at half-maximal effect; nearly all actives have a fitted effect of over 20% in size
# Summary of the method: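 Cell-based rPXR luciferase reporter assay, 2,000 cells per well, rested 5hr at 37 C before compound addition in DMSO, then 24 hr at 37 C. One-Glo reagent was added and luminescence read after 30 min at room temperature.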
# Tags tell the direction and shape of the fitted curve or compound fluorescence and quenching.
# Sequence of UniProt P03372 (P03372 whole entry, looked up): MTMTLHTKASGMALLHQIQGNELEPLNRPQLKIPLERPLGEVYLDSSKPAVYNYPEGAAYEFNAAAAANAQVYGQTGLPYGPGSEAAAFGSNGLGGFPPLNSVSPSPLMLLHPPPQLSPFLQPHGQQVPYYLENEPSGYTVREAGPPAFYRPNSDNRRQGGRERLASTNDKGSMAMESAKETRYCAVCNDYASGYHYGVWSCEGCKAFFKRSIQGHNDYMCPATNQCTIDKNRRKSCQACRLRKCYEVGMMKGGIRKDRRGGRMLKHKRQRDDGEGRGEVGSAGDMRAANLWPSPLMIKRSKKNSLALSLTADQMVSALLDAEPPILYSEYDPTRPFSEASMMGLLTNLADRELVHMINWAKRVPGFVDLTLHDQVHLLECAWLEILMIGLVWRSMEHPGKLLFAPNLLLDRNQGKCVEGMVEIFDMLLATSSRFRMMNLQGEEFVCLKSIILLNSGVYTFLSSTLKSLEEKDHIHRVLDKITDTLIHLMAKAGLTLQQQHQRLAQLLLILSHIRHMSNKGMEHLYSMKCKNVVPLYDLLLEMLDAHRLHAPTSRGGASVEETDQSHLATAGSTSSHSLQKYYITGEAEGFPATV
# Sequence of UniProt P11473 (P11473 whole entry, looked up): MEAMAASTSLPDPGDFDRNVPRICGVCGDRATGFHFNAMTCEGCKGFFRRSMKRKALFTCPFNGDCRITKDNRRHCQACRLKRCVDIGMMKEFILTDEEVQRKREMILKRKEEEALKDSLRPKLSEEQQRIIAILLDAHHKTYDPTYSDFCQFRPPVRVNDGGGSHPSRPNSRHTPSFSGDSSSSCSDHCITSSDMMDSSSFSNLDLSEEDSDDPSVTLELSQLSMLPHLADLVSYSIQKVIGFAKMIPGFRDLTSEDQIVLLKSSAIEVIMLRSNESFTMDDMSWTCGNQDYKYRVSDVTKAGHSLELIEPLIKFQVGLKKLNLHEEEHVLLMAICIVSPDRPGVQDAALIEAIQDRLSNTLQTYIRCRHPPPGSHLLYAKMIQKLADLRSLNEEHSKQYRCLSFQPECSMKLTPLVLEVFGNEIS
# Sequence of UniProt Q92731 (Q92731 whole entry, looked up): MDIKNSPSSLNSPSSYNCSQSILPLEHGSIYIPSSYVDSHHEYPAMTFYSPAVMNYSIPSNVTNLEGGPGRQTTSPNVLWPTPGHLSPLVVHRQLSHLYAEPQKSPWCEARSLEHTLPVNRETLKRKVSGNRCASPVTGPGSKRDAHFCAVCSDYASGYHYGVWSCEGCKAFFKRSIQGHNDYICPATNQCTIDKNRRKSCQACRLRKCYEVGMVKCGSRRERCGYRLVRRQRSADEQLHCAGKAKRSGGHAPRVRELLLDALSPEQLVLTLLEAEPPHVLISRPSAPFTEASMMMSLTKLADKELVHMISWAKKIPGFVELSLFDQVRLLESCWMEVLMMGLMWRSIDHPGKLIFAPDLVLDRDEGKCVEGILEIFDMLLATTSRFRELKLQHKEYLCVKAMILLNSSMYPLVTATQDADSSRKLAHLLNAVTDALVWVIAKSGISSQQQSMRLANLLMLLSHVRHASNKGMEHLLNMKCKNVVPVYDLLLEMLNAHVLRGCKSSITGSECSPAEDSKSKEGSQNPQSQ
# Sequence of UniProt Q9R1A7 (Q9R1A7 whole entry, looked up): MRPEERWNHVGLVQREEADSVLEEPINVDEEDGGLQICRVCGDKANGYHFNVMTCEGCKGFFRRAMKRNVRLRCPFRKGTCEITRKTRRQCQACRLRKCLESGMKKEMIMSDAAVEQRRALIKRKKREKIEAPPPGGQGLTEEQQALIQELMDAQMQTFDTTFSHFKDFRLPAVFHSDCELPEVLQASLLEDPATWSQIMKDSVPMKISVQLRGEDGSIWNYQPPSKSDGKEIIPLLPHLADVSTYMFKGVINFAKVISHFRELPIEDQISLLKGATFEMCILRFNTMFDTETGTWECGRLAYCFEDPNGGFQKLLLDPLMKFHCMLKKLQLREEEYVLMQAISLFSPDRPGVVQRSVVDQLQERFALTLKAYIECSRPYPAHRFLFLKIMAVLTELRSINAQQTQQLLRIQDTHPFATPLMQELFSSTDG
smiles,measurement,setting,value
C=C(C)[C@H]1CN[C@H](C(=O)O)[C@H]1CC(=O)O,Potency,[1],inactive
same,Potency,[2],inactive
same,Potency,[3],inactive
CN1C2CCC1CC(OC(c1ccccc1)c1ccc(Cl)cc1)C2 (configuration not stated),Potency,[4],active: 29.8 µM
same,Potency,[5],"inconclusive: 33.5 µM [cytotoxic, single point]"
same,activation,[6],inconclusive: -9.11% [phenotype inactive]
same,Potency,[1],"inconclusive: 21.3 µM [rising, partial curve]"
same,Potency,[7],"inconclusive: 29.8 µM [falling, single point]"
same,Potency,[8],"inconclusive: 33.5 µM [cytotoxic, single point]"
C#CCN(C)[C@H](C)Cc1ccccc1,Potency,[8],inactive
same,Potency,[9],"inconclusive: 0.389 µM [inhibitor, full curve, poor fit]"
same,Potency,[3],inactive
C[C@]12CC[C@H]3[C@@H](CCC4=CC(=O)CC[C@@]43C)[C@@H]1CC[C@H]2O,Potency,[10],"inconclusive: 13.3 µM [inhibitor, partial curve, poor fit]"
same,Potency,[7],"inconclusive: 0.0047 µM [rising, full curve, poor fit]"
CC(C)[C@@]1(NC(=O)[C@@H]2C[C@@H]3c4cccc5[nH]cc(c45)C[C@H]3N(C)C2)O[C@@]2(O)[C@@H]3CCCN3C(=O)[C@H](Cc3ccccc3)N2C1=O,Potency,[4],"inconclusive: 37.6 µM [cytotoxic, partial curve, poor fit]"
same,Potency,[6],inconclusive: 23.7 µM [inhibitor]
same,Potency,[1],"inconclusive: 23.9 µM and inconclusive: 12 µM [fluorescent, partial curve, poor fit]"
CN(CCO)CCO,Potency,[1],inactive
same,Potency,[11],"inconclusive: 0.182 µM [rising, full curve, poor fit]"
same,Potency,[12],inactive
Cc1nc(N)nc(N)n1,Potency,[13],inactive
same,Potency,[14],inactive
C[N+](=O)[O-],Potency,[10],inactive
same,Potency,[15],inactive
same,Potency,[16],inactive
c1ccccc1,Potency,[7],inactive
C=CCCC#N,Potency,[5],"inconclusive: 75.1 µM [rising, partial curve, poor fit]"
same,Potency,[11],inactive
same,Potency,[16],inactive
C=COCCCl,Potency,[3],inactive
CC(=O)O[C@H]1C[C@H](O[C@H]2[C@@H](O)C[C@H](O[C@H]3[C@@H](O)C[C@H](OC4CC[C@@]5(C)C(CC[C@@H]6[C@@H]5CC[C@]5(C)[C@@H](C7=CC(=O)OC7)[C@@H](O)C[C@]65O)C4)O[C@@H]3C)O[C@@H]2C)O[C@H](C)[C@H]1O[C@@H]1O[C@H](CO)[C@@H](O)[C@H](O)[C@H]1O (some centres not stated),Potency,[4],active: 0.376 µM
same,Potency,[5],"inconclusive: 0.473 µM [cytotoxic, partial curve, poor fit]"
same,Potency,[1],"inconclusive: 4.25 µM [fluorescent, full curve, poor fit]"
same,Potency,[7],"inconclusive: 0.335 µM [rising, partial curve]"
CCc1ccccc1C,Potency,[3],inactive
same,Potency,[17],inactive
O=P(O)(O)c1ccccc1,Potency,[9],inactive
same,Potency,[18],inactive
same,Potency,[16],inactive
CO[C@H]1[C@@H](O)C[C@H](O[C@H]2[C@@H](O)C[C@H](O[C@H]3[C@@H](O)C[C@H](O[C@H]4CC[C@@]5(C)[C@H](CC[C@@H]6[C@@H]5C[C@@H](O)[C@]5(C)[C@@H](C7=CC(=O)OC7)CC[C@]65O)C4)O[C@@H]3C)O[C@@H]2C)O[C@@H]1C,Potency,[5],"inconclusive: 0.15 µM [cytotoxic, partial curve, poor fit]"
same,Potency,[1],"inconclusive: 0.601 µM [fluorescent, full curve, poor fit]"
same,Potency,[7],"inconclusive: 0.106 µM [rising, partial curve]"
CCCCCCCC(=O)Cl,Potency,[8],inactive
same,Potency,[15],inactive
C#C[C@]1(OC(=O)CCCCCC)CC[C@H]2[C@@H]3CCC4=CC(=O)CC[C@@H]4[C@H]3CC[C@@]21C,Potency,[4],active: 29.8 µM
same,Potency,[6],"inconclusive: 10.6 µM [inhibitor, partial curve, poor fit]"
same,Potency,[1],"inconclusive: 26.8 µM [fluorescent, single point]"
same,Potency,[2],active: 0.338 µM [inconclusive]
same,"activity change, negative = inhibition",[7],inconclusive: -1.82%
N#C/C=C/c1ccccc1,Potency,[14],inactive
C=C[C@H]1CN2CC[C@H]1C[C@@H]2[C@@H](O)c1ccnc2ccccc12,Potency,[4],"inconclusive: 13.3 µM [cytotoxic, single point]"
ClCC(Cl)Cl,"activity change, negative = inhibition",[9],inconclusive: 6.69% [at 78.8 µM]
C[C@]12CC[C@H]3[C@@H](CCC4=CC(=O)CC[C@@]43C)[C@@H]1CC[C@@H]2OC(=O)CCc1ccccc1,Potency,[4],"inconclusive: 68.6 µM [cytotoxic, single point]"
same,Potency,[10],"inconclusive: 30.6 µM [inhibitor, full curve]"
same,Potency,[1],"inconclusive: 5.49 µM [activator, full curve]"
same,Potency,[7],"inconclusive: 0.193 µM [rising, full curve]"
C1=CCC=C1,Potency,[11],inactive
NC(=O)CF,"activity change, negative = inhibition",[9],inconclusive: 8.51%
ClCc1ccccc1Cl,"activity change, negative = inhibition",[9],inconclusive: 18.9% [at 78.8 µM]
same,Potency,[12],inactive
same,Potency,[16],inactive
COC1=CC=C2[C@H]3Cc4ccc(OC)c5c4[C@@]2(CCN3C)[C@H]1O5,Potency,[5],"inconclusive: 54.3 µM [cytotoxic, partial curve, poor fit]"
same,Potency,[10],"inconclusive: 38.4 µM [inhibitor, partial curve]"
CC(C)OC(=O)Cc1ccccc1,Potency,[8],inactive
same,Potency,[15],inactive
same,Potency,[17],inactive
CCC1(c2ccccc2)C(=O)NC(=O)N(C)C1=O (configuration not stated),Potency,[19],"inconclusive: 14.1 µM [activator, single point]"
